# Test results reported in PubChem BioAssay AID624417 (National Center for Advancing Translational Sciences (NCATS), 2012).
# Screen size: about 410,000 compounds; about 6,400 (1.6%) were called active. Inconclusive results, whose numbers are uncertain, are shown with a selection of clear calls. The call rests on the fitted dose curve; in most records, active means well fitted inhibition curve with a large enough effect; inconclusive means small, poorly fitted or top-dose-only effect; inactive means no such curve, though single readings can be large or run the other way. No potency is given beside an inconclusive call; the fits are too rough.
# Biological target: Glucagon-like peptide 1 receptor (Homo sapiens) (UniProt P43220)
# Sequence of UniProt P43220 (P43220 whole entry, looked up): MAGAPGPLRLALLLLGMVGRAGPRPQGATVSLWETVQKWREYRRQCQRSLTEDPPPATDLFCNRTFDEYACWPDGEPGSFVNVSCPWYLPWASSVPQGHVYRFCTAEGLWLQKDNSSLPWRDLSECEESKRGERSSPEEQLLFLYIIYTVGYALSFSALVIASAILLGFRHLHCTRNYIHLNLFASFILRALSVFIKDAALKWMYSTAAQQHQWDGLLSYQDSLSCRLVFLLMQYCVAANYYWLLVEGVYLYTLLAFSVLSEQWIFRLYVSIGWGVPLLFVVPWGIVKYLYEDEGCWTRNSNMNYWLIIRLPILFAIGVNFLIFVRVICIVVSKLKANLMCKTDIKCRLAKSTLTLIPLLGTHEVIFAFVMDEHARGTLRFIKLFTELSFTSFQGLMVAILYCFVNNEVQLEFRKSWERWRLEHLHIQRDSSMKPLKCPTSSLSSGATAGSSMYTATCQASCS
# Experiment: qHTS of GLP-1 Receptor Inverse Agonists (Inhibition Mode); further: nearly all actives have a fitted effect of over 55% in size
# Details: HEK293 GLP-1R CRE-luciferase, luminescence, 24 h, GLP-1R form is constitutively active; series mostly up to 38.3 µM
# Outline: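 Assay principle: reduced luminescence from a cAMP-responsive reporter in HEK293 cells co-expressing a constitutively active GLP-1R. Conditions: 24 hr compound incubation, 37 deg C, 5% CO2.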
# Potency means the concentration at half of the fitted maximal effect; tags describe the fitted curve by direction and shape.
row,Structure (SMILES),Potency
1,CCCC(C(=O)NCCC(C)C)N(Cc1ccc(OC)cc1)C(=O)c1snc(C(N)=O)c1N (configuration not stated),"inconclusive [inhibitor, single point]"
2,CC(=O)c1cccc(OCc2cc(C(=O)N(C)CCc3ccccn3)no2)c1,inactive
3,CC1CCCC(C)N1CCCNC(=O)C1CCCN(c2ncnc3c2nc2n3CCCCC2)C1 (configuration not stated),inactive
4,CC(NCc1ccccc1OC1CCCC1)c1ccccc1 (configuration not stated),"inconclusive [inhibitor, single point]"
5,CCCCN(C)C(=O)c1nc2ccccn2c1CNCCCn1ncc2ccccc21,"inconclusive [inhibitor, single point]"
6,COC(=O)c1cc2sccc2n1CC(=O)Nc1cc(Cl)ccc1OC,"inconclusive [inhibitor, partial curve, poor fit]"
7,CCN(C(=O)CCc1nc(-c2ccc(OC)cc2)no1)c1cc(OC)ccc1OC,"inconclusive [inhibitor, partial curve, poor fit]"
8,COc1ccc(OCCn2nnc3sc4c(c3c2=O)CCCC4)cc1,inactive
9,CC(C)c1ccc(C(C)NCCS(=O)(=O)c2ccc(Cl)cc2)cc1 (configuration not stated),"inconclusive [inhibitor, partial curve, poor fit]"
10,Cc1ccc2nc3c(c(Nc4cccc(O)c4)c2c1)CCC3,"inconclusive [inhibitor, partial curve]"
11,O=C(Nc1ccc2c(c1)CCC2)c1c(F)cccc1Cl,"inconclusive [inhibitor, single point]"
12,Cc1ccc(-c2nc(CS(=O)CC(=O)NCCc3ccc(Cl)cc3)c(C)o2)cc1 (configuration not stated),"inconclusive [inhibitor, single point]"
13,COc1ccc(C(=O)NC(=S)NCc2ccccc2)cc1OC,inactive
14,Cc1ccc(NC(=O)CN(C)CC(=O)Nc2ccccc2Oc2ccccc2)cc1,"inconclusive [inhibitor, single point]"
15,COc1cc(NC(=O)C2Cc3ccccc3N2C(=O)c2ccccc2)cc(OC)c1 (configuration not stated),"inconclusive [inhibitor, single point]"
16,COC(=O)c1ccc(CN2CCC(CO)(CCOc3ccccc3)CC2)cc1,"inconclusive [inhibitor, partial curve, poor fit]"
17,CCN(CC)C1Oc2cc3c(cc2C(c2cccc(OC)c2O)C1C)OCO3 (configuration not stated),"inconclusive [inhibitor, partial curve, poor fit]"
18,CC(NS(=O)(=O)c1ccc2[nH]c(=O)[nH]c2c1)c1ccc(F)cc1 (configuration not stated),inactive
19,CN(CC1CCCN(CCc2ccccc2F)C1)C(=O)c1cc2ccccc2o1 (configuration not stated),"inconclusive [inhibitor, single point]"
20,COc1ccc(NS(=O)(=O)c2cc(NC(=O)CCc3ccccc3)ccc2N2CCOCC2)cc1,"inconclusive [inhibitor, single point]"
21,CCc1ccc(C(=O)NNc2ccc(C)c(Cl)c2)cc1,"inconclusive [inhibitor, full curve, poor fit]"

row,Structure (SMILES),Potency
1,COc1cccc(CNCCSc2nnnn2-c2ccccc2)c1OC,inactive
2,Cc1ccc(Nc2nc3ccccc3o2)cc1F,"inconclusive [inhibitor, single point]"
3,O=C(/C(=C/O)N=Nc1ccccc1)c1ccc(Cl)cc1,"inconclusive [inhibitor, single point]"
4,C=CCNC(=O)c1ccc2nc(-c3ccccc3)c(-c3ccccc3)nc2c1,"inconclusive [inhibitor, partial curve, poor fit]"
5,Cc1cccc(-n2c(C)cc(/C=N\NC(=O)c3ccco3)c2C)c1,inactive
6,Cc1ccc(S(=O)(=O)N(C)CC(=O)O/N=C(\N)c2cccc(Br)c2)cc1,"inconclusive [inhibitor, partial curve, poor fit]"
7,COc1ccc(C)cc1NC(=O)NNC(=O)C1CCC(C(C)(C)C)CC1 (configuration not stated),"inconclusive [inhibitor, single point]"
8,CCn1c(SCC(=O)c2ccccc2)nnc1-c1cccc(Cl)c1,inactive
9,COCCn1c(/C=C/c2ccccc2)nc2ccccc21,"inconclusive [inhibitor, single point]"
10,CC1Cc2ccccc2N1C(=O)c1cc2sccc2n1Cc1ccc(F)cc1 (configuration not stated),"inconclusive [inhibitor, partial curve, poor fit]"
11,CCCCn1c(-c2cccc(C)c2)nc2cc3[nH]c(=O)c(C(C)C)nc3cc21,"inconclusive [inhibitor, single point]"
12,Cc1ccc(-n2nc(C)cc2Nc2ncc(Cl)cc2Cl)cc1,"inconclusive [inhibitor, partial curve, poor fit]"
13,CCCC(=O)OC1CCS(=O)(=O)c2sccc21 (configuration not stated),"inconclusive [inhibitor, single point]"
14,Cc1ccc(/C=C/c2onc(C)c2S(=O)(=O)N2CCC(C(=O)NCc3ccc(OC(C)C)cc3)CC2)cc1,inactive
15,O=C(Cn1c(-c2cccs2)cc2cc(F)ccc21)NCCCN1CCN(c2ccc(F)cc2)CC1,"inconclusive [inhibitor, partial curve, poor fit]"
16,Cc1cc(NC(=O)c2cnc3c(-c4ccccc4)c(C)nn3c2C)ccc1Br,"inconclusive [inhibitor, single point]"
17,CN1CCN(CCCNC(=O)CN2C(=O)COc3ccccc32)CC1,inactive
18,Cc1ccc(S(=O)(=O)N(CCO)c2cc3c(s2)CCCC3)cc1,"inconclusive [inhibitor, single point]"
19,CC(C)c1ccccc1NC(=O)Cn1c(-c2ccccc2Cl)nc2ccccc21,"inconclusive [inhibitor, single point]"
20,Cc1cc(NC(=O)C(C)(C)C)cc(-c2nc3ncccc3o2)c1O,inactive
21,COc1ccc(NC(C)=[N+](C)CCNS(=O)(=O)c2ccc(Cl)cc2)cc1,"inconclusive [inhibitor, single point]"
